In all, about 33,000 sequences were measured (“E-score (-0.5 to 0.5)”: median about -0.054, highest 2% from about 0.39 on). The list shows a part of the results.
Target: Ylr278c (UniProt Q05854)
Assay: PBM E-score (8-mer binding enrichment) (E-score (-0.5 to 0.5)); higher = stronger / more preferred TF binding; most listed sequences are background and not binding sites
Conditions: protein concentration: 200 nM; construct: GST-DNA-binding domain
Outline: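 Yeast transcription factors, full-length or as DNA-binding domains, were expressed with a GST tag using PURExpress in vitro transcription/translation. At about 100-200 nM they were applied to universal all-10-mer Agilent arrays, double-stranded by primer extension on fresh or once-stripped slides. Fluorescent anti-GST detected bound protein, and masliner normalised the scans. E-scores for ungapped eight-base words, pooled with reverse complements, came from the Universal PBM Analysis Suite.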

Sequence | PBM E-score
GTGCTGCA | -0.00869
CCCGGAGA | 0.476
CGTGAAAA | -0.0561
GCTGACGA | -0.281
ATCAGGGC | -0.201
CAAGAATG | 0.092
GATAACAC | 0.0766
AGGTATCC | -0.0286
ACATACAC | -0.0879
AGGGACTA | -0.223
ATGGTGAC | -0.31
CAGAACTC | -0.0767
AATGATGG | 0.0306
AATTCCCG | 0.345
AAAACTGG | -0.0461
ACCTCGCC | 0.0272
ACAGCACT | -0.0845
TATACATA | -0.214
CGAAGCAC | 0.0155
CGGGACAC | 0.0985
CAATGTTA | -0.126
AACTAATT | -0.00161
CGTCGTTA | 0.032
GCTTTCTA | -0.0726
CACACAAG | -0.203

Sequence | PBM E-score
GGCGACCA | -0.0957
GGCTGTTA | -0.0693
GTAGAACA | -0.202
ACAGCATG | -0.0904
AATAGCCT | -0.223
GCTTTAGA | -0.179
AGGATATA | -0.11
CCAGTGTA | -0.0362
CAAGCAAA | -0.103
CCATCTGA | -0.155
TTCAAAAA | -0.0673
TAAGCTTA | -0.262
CACACATC | -0.0749
GTCGGACA | 0.386
TGGAGACA | -0.227
TCAGTTAA | 0.044
ACTGCATG | -0.196
ACGACTTC | -0.0449
GGCGTACA | -0.16
ATATTCAC | -0.0206
CCACGTCC | 0.0181
CACTTATC | -0.155
CTGGGCAA | -0.0529
CAATTTAA | -0.00752
ACTGGTAG | -0.116

Sequence | PBM E-score
CAAGGGGC | 0.0506
AAGACGCG | 0.0674
ACATCCGA | 0.356
TAATGACA | -0.0415
ACACAATG | -0.143
CGGTTCTC | 0.102
CCGCTACG | 0.192
GAGGCACC | -0.12
ACCTGTTG | -0.16
CGTGTTGC | 0.0387
CGATCGCG | 0.244
AGTAACTG | -0.167
ACGGACAA | 0.355
AGCAAACT | -0.0252
AAAATAGC | -0.0827
ACTTTTTC | 0.0317
CAGCCTCA | -0.248
CACCGCAA | 0.226
GCTCCTCC | 0.0475
AGACAAAA | -0.0417
ATGCTGGA | -0.0997
GCACTCGC | 0.0715
GCAGCGGA | 0.304
AAGTGACA | -0.00461
GGTGTTAC | -0.00064

Sequence | PBM E-score
AACACGAC | -0.161
AATCTCAA | 0.0797
CCACCTCA | -0.0406
ACTTAGCA | -0.0645
GAGCTTCC | 0.203
GGGTGTGA | -0.128
CCTCCGCA | 0.359
CATCCATA | -0.123
CACAGGAA | 0.0218
ACAATCGG | 0.352
GCATTGAC | -0.161
GCTAGCAC | -0.0829
TACCCATA | -0.268
AGATAGCC | 0.0998
CGCAGACC | 0.00499
ATCTTCTG | 0.0811
CCCGACGC | 0.294
AGTAACGG | 0.0625
GGGATCAC | -0.0942
CGGCCCTC | 0.139
CCGATAGC | 0.301
AGGAGTAT | -0.116
AACATGGA | -0.0922
GGGATAGA | -0.0417
GATGTGCC | 0.00479

Sequence | PBM E-score
GACCTGGC | -0.0814
AAGAAGAC | -0.125
CAGAATTC | 0.0633
AACCCACA | -0.192
CCCGATCA | 0.227
CACAGTGG | -0.162
GGACCGAC | 0.198
GTCATAAC | -0.104
CCACCGGG | 0.329
CATTTAAA | 0.0824
CCGGTTTA | 0.317
AGGCCAGA | -0.0555
AAAAGTGC | 0.0666
GAATCATA | -0.09
CATCACTA | -0.195
AACCCGCG | 0.229
CGGTGACA | 0.148
AACATGTG | -0.071
CATAGCAC | -0.0308
CCCCGACG | 0.363
CTAAACAG | -0.148
CTAGACGC | -0.236
CTAAAGAG | -0.213
ATTACTTA | 0.148
CTTATTTC | 0.0792

Sequence | PBM E-score
CGTTACCA | -0.241
CCGTACCA | 0.247
GGCAGGAC | -0.00715
GCCTCCCA | -0.0948
GAACGACA | -0.173
CACTGTAC | -0.378
CATAATGC | 0.0347
ACGTTGCT | -0.241
GATTTACA | 0.0958
AGTTTTTG | -0.0312
GCACCGAC | 0.303
CACTACGA | -0.133
GAAGCTGA | 0.011
GGATTAGA | 0.00896
AGATAACG | 0.239
GGTAATTA | 0.211
GACATGAC | -0.15
CCGAATTC | 0.323
AAGCTCTA | -0.224
ATCACGGG | 0.0633
CGACGGCA | 0.113
GGAAGTAA | 0.21
CGCTGGAA | 0.12
ACCATGTC | -0.0165
CGGTTTTA | 0.229

Sequence | PBM E-score
CATTCCCC | 0.268
GCGTGACA | -0.135
CTGCTATA | 0.015
CCTAAGCA | -0.0992
GAAATGCA | 0.0435
GCGCTGCC | -0.103
CAATCGAG | -0.153
TCTGCTCA | -0.298
CAAAAGGG | -0.25
GAAAAGAC | 0.066
CGCCTTAC | -0.152
CTAAGACA | -0.199
GACAAATC | 0.011
GAAAAAAA | 0.108
CCGGTTTC | 0.345
AGGCCCTG | -0.276
AGCAGTCC | -0.0654
CGCGCTGA | 0.0743
GACATTCA | 0.177
ATAGATAC | -0.138
GTACACGA | -0.0442
CCGTATGA | 0.165
TTACTGAA | -0.0744
AGTGCGTG | -0.0867
GACCGAAC | 0.122

Sequence | PBM E-score
ATGAGACA | -0.0671
GCATCGCC | 0.0511
GGCAAAGA | 0.147
ACACGTCG | 0.0356
GAGTGGCC | 0.108
AATGGTTC | -0.108
AAGGTTAT | -0.0625
AACCGAGT | -0.0766
CAAAGCTG | -0.0969
CCTGCGTA | -0.145
AACTGTTA | -0.15
CAATAAGC | 0.11
AGTAGTAC | -0.0265
ATATGAGC | -0.125
GGCATACC | -0.0283
TAACCCAA | -0.137
CGTCGAGC | -0.0842
TCATGGCA | -0.145
CCCAATTC | 0.00722
AGTAAGGA | -0.072
GGCAGGGA | -0.197
ACGCGACC | -0.107
CAATCGCG | 0.0497
GTGACTTA | -0.115
ACGCCTGA | -0.127

Sequence | PBM E-score
CATTTGGC | -0.0986
AAGGTAAG | -0.136
TATGCGCA | -0.0947
ATGACTTC | -0.0415
CGCAAGCC | 0.0749
ACTTTCCT | -0.146
GACGGCAA | 0.142
TCGATTCA | -0.103
CCTCATCA | -0.177
GTTACAGA | -0.131
ATCTCTCG | 0.0392
CCCACGCC | -0.193
ATACGAAT | -0.24
GGGAATTA | 0.143
GACGCCTC | -0.121
CACTCTAA | -0.127
ACCGTTAC | -0.124
GCAGTTAC | 0.0318
CATTATAG | -0.0427
GTAAAGAA | -0.0759
CGAATGAC | 0.167
CGTAGCTC | 0.0772
AAGAAGGC | -0.0911
CATTTAAG | -0.159
CACTACTA | -0.0402

Sequence | PBM E-score
AAAGGCAA | -0.121
ATTCGCAA | -0.0414
CACCCATG | -0.103
GGGGTCTA | 0.142
GTATCCCA | -0.139
GCATAGCA | -0.229
AAGTTTAT | 0.139
AGGTGCAC | 0.0215
GACCTTGC | -0.212
ACAGAAAA | 0.00544
AGATCATA | -0.0376
CCGCAAGA | 0.249
AATATAGA | -0.109
AAACTCCT | 0.23
AGCATCGG | 0.311
GGTTTCCA | -0.153
CGTTAGCA | -0.0483
GACGAAAA | 0.113
AGTTAGTA | -0.0364
ACTGCTAC | -0.184
AGCCGGCT | 0.247
AGGATCTG | -0.301
CTTAGCCC | -0.0135
GTTGTTAA | 0.0758
CTTAGCAC | 0.19

Sequence | PBM E-score
GCTATAAA | -0.0727
CGTTCGTA | 0.0114
ACGTACCG | -0.0502
GAATGATC | -0.0676
AGGTACCT | -0.183
CCTGAATC | -0.0576
TATGGAGA | -0.115
GCTAAGAA | -0.0627
ACCATACA | -0.203
CGTAAGAG | -0.0166
CAATATGG | -0.183
AACCTACG | -0.107
GTTTTGGA | -0.101
CTCGACAA | -0.169
ACCCGTGG | -0.117
ATCGATAA | -0.0278
CAGAGCCA | -0.311
ATCCTTAC | -0.0586
ATAGATGA | -0.158
CGGGCAAA | 0.247
AGGCTTTA | -0.102
ACACGGAA | 0.288
AAAAGTAC | 0.0462
GGTTAGTA | 0.0313
ATGTTACA | -0.164

Sequence | PBM E-score
CCAGATTA | -0.0961
ACTAGTTC | -0.146
ACCCCTTG | -0.292
ATATACAG | -0.0931
GCGAACGC | 0.0827
CAGCTTGC | -0.075
CACTGTTC | -0.143
TAAGTTCA | -0.145
CTAGCAGC | -0.221
GCATCGTA | -0.0408
AGTTCGGG | 0.281
GCAGTCTA | -0.192
ATCTGCAG | -0.0189
GCAGCTAA | -0.195
GAAATTAC | 0.109
CGCAGTAA | 0.0396
CGCGACCG | 0.172
GAGAGCGC | 0.153
TCGACTCA | -0.106
CAAGCCGG | 0.263
ACGCCTAT | -0.0906
AAGCTTTC | 0.0366
TCAGCAAA | -0.104
ATTTCCTA | -0.0235
AAGTTTCT | -0.169

Sequence | PBM E-score
ATCCGTCA | 0.159
ACGGGCGG | 0.299
CTGACTGC | -0.113
GTGGAGGA | -0.0524
GACACGCC | 0.066
AGCTGGTA | -0.144
CTCAGTCA | -0.282
GGAAATTA | 0.22
TACTCAGA | -0.0279
ATTAGAGC | -0.0167
ACATCGAT | -0.137
ACTAAGGA | -0.157
TCGCCCGA | 0.101
CGGATAGC | 0.175
CCGTCAAA | 0.133
GATTTGAA | -0.062
GAGAGCCC | -0.16
ACAGTCTG | -0.121
GAGCCAGA | -0.0255
TACGATAA | -0.114
CAAATTTC | -0.0917
AACTCGCT | 0.0858
AGCTCGCA | -0.0507
GACCACTC | 0.0871
ACATACCG | 0.0629

Sequence | PBM E-score
AGCATCAT | -0.127
AAAGGAAG | -0.0494
GCCTGATA | -0.235
CTCGCGAA | -0.0696
GTACCTCA | -0.28
CTAGGCAC | -0.208
GTGAGCCA | -0.292
ATAAATAA | 0.0464
CAATGGAA | 0.0782
CCTCTTCA | -0.238
ATAAGTAA | 0.0323
CGGGATCC | 0.368
CCGTGAAA | 0.194
CTTTACTA | 0.0323
AACTTGCA | -0.179
GCCCCTGA | -0.191
ACGGTTTG | 0.0382
AATTAGCC | 0.0197
AGATTATG | 0.0457
